Source: publication PMC4336329 (PLoS ONE, 2015)
The whole screen tested about 310,000 compounds, of which about 14,000 (4.5%) showed an effect of 50% or more. Effects have a minus sign here. The list shows a part of the results.

Target: human ether-à-go-go-related gene (hERG) potassium channel (human, UniProt Q12809)
Assay: primary screen, population patch clamp on CHO cells stably expressing hERG
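Further: peak tail current of the secondary pulse compared with the same well before compound.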

Sequence of human ether-à-go-go-related gene (hERG) potassium channel (Q12809 whole entry, looked up): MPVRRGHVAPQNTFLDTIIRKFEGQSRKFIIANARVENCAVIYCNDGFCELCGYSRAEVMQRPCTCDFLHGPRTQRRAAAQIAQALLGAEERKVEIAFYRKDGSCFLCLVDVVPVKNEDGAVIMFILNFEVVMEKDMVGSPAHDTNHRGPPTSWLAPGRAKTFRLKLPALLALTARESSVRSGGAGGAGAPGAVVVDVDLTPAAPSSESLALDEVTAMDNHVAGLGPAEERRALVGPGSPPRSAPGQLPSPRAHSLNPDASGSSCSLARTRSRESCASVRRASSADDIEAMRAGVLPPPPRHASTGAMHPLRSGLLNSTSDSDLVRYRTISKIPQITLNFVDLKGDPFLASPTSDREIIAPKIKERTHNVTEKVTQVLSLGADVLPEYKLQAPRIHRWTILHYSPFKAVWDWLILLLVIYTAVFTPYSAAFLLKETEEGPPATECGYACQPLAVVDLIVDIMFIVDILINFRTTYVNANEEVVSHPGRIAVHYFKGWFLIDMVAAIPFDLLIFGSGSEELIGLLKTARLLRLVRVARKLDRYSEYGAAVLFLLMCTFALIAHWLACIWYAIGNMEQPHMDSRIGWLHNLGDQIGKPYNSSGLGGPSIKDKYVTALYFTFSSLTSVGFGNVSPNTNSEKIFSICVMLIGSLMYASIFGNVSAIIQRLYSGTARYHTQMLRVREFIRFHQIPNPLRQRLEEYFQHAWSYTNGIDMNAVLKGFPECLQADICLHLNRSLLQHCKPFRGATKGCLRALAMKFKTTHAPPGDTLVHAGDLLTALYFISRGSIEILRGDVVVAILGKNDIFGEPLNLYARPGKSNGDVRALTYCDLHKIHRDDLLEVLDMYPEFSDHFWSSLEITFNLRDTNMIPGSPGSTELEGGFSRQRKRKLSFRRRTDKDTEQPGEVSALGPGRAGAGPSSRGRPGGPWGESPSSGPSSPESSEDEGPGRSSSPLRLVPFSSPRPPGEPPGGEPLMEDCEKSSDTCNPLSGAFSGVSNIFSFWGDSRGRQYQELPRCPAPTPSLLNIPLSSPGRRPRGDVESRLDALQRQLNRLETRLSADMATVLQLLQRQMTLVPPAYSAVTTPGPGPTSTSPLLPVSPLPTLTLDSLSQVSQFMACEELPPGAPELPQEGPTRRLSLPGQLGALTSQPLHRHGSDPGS

Compound | hERG current change (%, negative = inhibition) at 10uM
Cc1ccc(C2=NN(CCC(=O)NCCCN3CCOCC3)C(=O)CC2)cc1 | -52.3%
CC1(C)Cc2c(c(N3CCOCC3)nc3sc4c(NCc5ccco5)nnnc4c23)CS1 | 8.33%
OCCNc1ncnc2c1cnn2Cc1ccccc1 | 15.9%
CCCc1cc(=O)oc2c(C)c3occ(C)c3cc12 | -2.29%
CC(=O)N1CCN(C(=O)/C(C#N)=C/c2ccc3c(c2)OCO3)CC1 | 23.8%
CCCCOCCCNC(=O)N[C@@H](CCSC)C(=O)OC | 16.3%
Cc1cc(OC(=O)c2c(F)cc(F)cc2F)nc(C)n1 | 11.2%
COc1cccc(NC(=O)Nc2cc(C(=O)O)ccc2C)c1 | 15.3%
CC1(C)CC(=O)C=C(NNC(=O)OC(C)(C)C)C1 | 1.99%
COCCN1C(=O)C(=O)/C(=C(/O)c2ccc(S(=O)(=O)N3CCOCC3)cc2)C1c1cccc(Cl)c1 (centres unmarked) | 1.38%
COc1ccc(NC(=O)CN(C)C(=O)C2CC(=O)N(c3ccc4c(c3)OCCO4)C2)cc1 (centres unmarked) | 1.96%
COc1ccc(CCNC(=O)c2ccc3c(c2)N(Cc2ccc(F)cc2)CCS3)c(OC)c1 | 3.96%
Cc1cc(-c2nnc(SCC(=O)Nc3ccc(C(F)(F)F)cc3)n2C)no1 | 17.8%
Cc1ccc(S(=O)(=O)N(CCC(=O)NCc2ccccc2F)c2ccccc2)cc1 | -33%
COc1ccc2c(c1)OC[C@H]1[C@H]2N2C(=O)CN(Cc3ccc(Cl)cc3)C(=O)[C@@]2(C)[C@H]1c1ccccc1 | 6.5%
CC1(C)CC(NC(=O)c2ccccn2)CC(C)(C)N1O.Cl | 11.8%
COC(=O)c1cc(OC)c(OC)cc1NC(=O)CCNC(=O)c1ccco1 | 15.3%
Cc1c(Cl)cccc1NC(=O)CNc1cccc(S(=O)(=O)N(C)C)c1 | -10.1%
CCC(C)Sc1cccc(-c2nc3cc(C)ccn3c2NCc2ccccc2)c1.O=C(O)C(F)(F)F (centres unmarked) | 4.02%
Cc1ccc(NCc2ccccc2O)cc1 | 6.73%
CCOC(=O)C1CCN(c2c(Nc3cc(C)cc(C)c3)c(=O)c2=O)CC1 | -29.1%
COc1ccccc1Nc1nnc(SCC2CCCCO2)s1 (centres unmarked) | -30.8%
O=C(Cn1cc([N+](=O)[O-])cn1)N1CCN(c2ccccc2)CC1 | 7.25%

Compound | hERG current change (%, negative = inhibition) at 10uM
O=C(CN(Cc1ccccc1)C(=O)c1csnn1)NCc1ccccc1 | 8.5%
O=c1cc(N2CCCCC2)c2ccccc2o1 | -23.8%
Cc1c(N=Cc2c(O)n(CCc3ccccc3)c(=O)[nH]c2=O)c(=O)n(-c2ccccc2)n1C | -39.3%
CCOC(=O)c1cnc2c(C)cccc2c1Nc1ccc(N2CCOCC2)cc1 | 8.24%
CC(=O)c1cccc(N(C(=O)c2ccco2)C(C(=O)NC2CCCC2)c2cccs2)c1 (centres unmarked) | 24%
CCOC(=O)c1c(N)ssc1=S | -24.3%
CC1CCCCC1NC(=O)/C(C#N)=C/C=C/c1ccccc1[N+](=O)[O-] (centres unmarked) | 5.19%
COC(=O)c1sc(=S)n(-c2ccccc2OC)c1N | -11.8%
CC1CCN(C2=NC(=O)/C(=C/c3cn(-c4ccccc4)nc3-c3cccc(S(=O)(=O)N(C)C)c3)S2)CC1 | -1.64%
O=C(CSc1nc(Nc2ccccc2)nc(N2CCOCC2)n1)N1CCCC1 | -60.4%
Cn1cc(C2=C(c3ccc(Cl)cc3Cl)C(=O)NC2=O)c2ccccc21 | 33%
COc1ccc(C(=O)N/C(=C\c2cc(OC)c(OC)cc2[N+](=O)[O-])C(=O)NCCO)cc1 | 17.3%
CSC(=Nc1cccc(C)c1)NC#N | 8.71%
O=C(N/N=C/c1sc(=O)n(-c2ccccc2)c1Cl)c1ccccc1 | 4.77%
O=C(Nc1ccc(Br)cc1)c1nn(C23CC4CC(CC(C4)C2)C3)cc1Br | 14.3%
CC(C)CN1CCN(Cc2cccn2-c2ccc(Cl)cn2)CC1CCO (centres unmarked) | -64.6%
CCCC(=O)Nc1ccccc1NC(=O)c1cc(OC)c(OC)c(OC)c1 | 13.7%
COC(=O)CN1C(=S)N(Cc2ccccc2)C(=O)C1CC(=O)Nc1ccc(OC)cc1 (centres unmarked) | -14.3%
Cc1cccc(C)c1OCCOC(=O)c1n[nH]c2ccccc12 | -30%
COc1ccccc1/C=C/C1(C(=O)NC2CCCC2)CC(=O)N1c1ccc(C)cc1 (centres unmarked) | -6.46%
COc1cc(C)ccc1OCCCOc1ccccc1Br | -2.07%
O=C1N=C2SCCN2/C1=C\c1ccccc1Cl | -2.33%
CC(C)C(C)NC(=O)CN1C(=O)NC(c2ccccc2)(c2ccccc2)C1=O (centres unmarked) | 6.71%

Compound | hERG current change (%, negative = inhibition) at 10uM
Cc1ccc(S(=O)(=O)N(C)C)cc1NC(=O)COC(=O)C1CCCC1 | 3.16%
CCN(C(=O)c1cc2ccccc2o1)C12CC3CC(CC(C3)C1)C2 | 11.4%
Cc1ccc(-n2nnc3c(=O)n(CC(=O)N4CCCC4)cnc32)cc1 | -26.7%
Cc1noc(C)c1COc1ccccc1C(=O)NC(C)c1ccc(Cl)cc1 (centres unmarked) | -55.8%
O=[N+]([O-])c1ccccc1/C=N\N1CCN(Cc2ccccc2Cl)CC1 | 9.77%
Cc1ccc(CNC(=O)C(=O)NCC2OCCCN2S(=O)(=O)c2cccs2)cc1 (centres unmarked) | -23.3%
COc1ccccc1NC(=S)NC(=O)C(C)(C)C | -9.31%
CC(=O)c1c(C)[nH]c(C(=O)OCC(=O)c2c(N)n(C)c(=O)n(C)c2=O)c1C | 18%
CCCCC(=O)Nc1ccc(NC(=S)NC(=O)CC(C)C)cc1OC | -8.21%
CCCCOc1ccc(C(=O)NCC(=O)NCC(c2ccc(OC)cc2)N2CCCC2)cc1 (centres unmarked) | -35.7%
Cc1ccc(S(=O)(=O)NC2=NCN(Cc3ccccc3)CN2)cc1 | 15.2%
CCCCc1ccc(NC(=O)c2ccc(N(C)S(C)(=O)=O)cc2)cc1 | 9.56%
CCc1ccc(NC(=O)CN2CC(c3ccccc3)CC2=O)cc1 (centres unmarked) | -27.6%
CC(C)CNC(=O)c1ccc(Cl)c(N)c1 | -6.74%
Cc1cc(C)c2c(n1)sc1c(O)cc(=O)[nH]c12 | -3.98%
Cc1cc(=O)oc2c(C)c(OCC(=O)NCc3ccccn3)ccc12 | 4.63%
CC(C)C(NC(=O)c1c(F)cccc1F)C(=O)N1CCN(S(=O)(=O)/C=C/c2ccccc2)CC1 (centres unmarked) | -25.7%
CCOc1nc(Nc2ccc(OC)cc2)nc(OCC)n1 | -23.4%
COc1cc(C(=O)NC(CCSC)C(=O)OCC(=O)NC(=O)C2CCCCC2)cc(OC)c1OC (centres unmarked) | 2.42%
Cc1cccc(NS(=O)(=O)c2ccc(-c3ccc(=O)[nH]n3)o2)c1 | 2.35%
O=C1CCCC(O)=C1Sc1cc(Cl)c(Cl)cc1Cl | 15.5%
O=P(CCCCCCCCCP(=O)(c1ccccc1)c1ccccc1)(c1ccccc1)c1ccccc1 | -56.1%
O=C(CCC(=O)c1cccs1)Nc1nc2ccccc2s1 | 11.5%

Compound | hERG current change (%, negative = inhibition) at 10uM
Cc1nc(SCC(=O)NCC2CCCO2)c2cc(-c3ccccc3)sc2n1 (centres unmarked) | -6.42%
CCCN1C(=O)/C(=C/c2cc(C)n(C)c2C)SC1=Nc1ccc(OCC)cc1 | 15.1%
Cc1c(Cl)c(C(=O)NNC(=S)Nc2ccc(F)cc2)nn1C | 28.7%
COc1ccccc1Oc1ccc2c(c1)C(=O)N(CC1CCCO1)C2=O (centres unmarked) | -7.89%
Cc1ccc(NC(=O)N2CCCN(C(=O)OC(C)(C)C)CC2)cc1Cl | -3.72%
COc1cccc(C(=O)Nc2nnc(-c3cccs3)o2)c1 | 4.37%
CC(=O)O.NC(N)=N/N=C/c1ccccc1OC(F)F | -9.69%
O=C(NCc1nnc(SCC(=O)N2CCCc3ccccc32)o1)c1ccccc1F | 2.41%
CNC(=O)Oc1ccc(-c2cn3cc(Cl)ccc3n2)cc1 | 0.0709%
COc1ccc(-n2nc(C(=O)NCC(=O)NC3CCCC(C)C3C)c3ccccc3c2=O)cc1 (centres unmarked) | 8.55%
O=C1CN(C(=O)CSc2nnc(C3CC3)n2-c2ccccc2)c2ccccc2N1 | 1.49%
CCCc1cc(=O)n2[nH]c(C(F)(F)F)nc2n1 | 25.7%
Cc1ccc(NC(=S)c2ccc(N(C)C)cc2)cc1 | 20.1%
CCCC(=O)Nc1sc2c(c1C#N)CCCC2 | 4.29%
Cc1cc(C)cc(N(CC(=O)NCC2CCCO2)C(=O)CCC(=O)Nc2cc(C)on2)c1 (centres unmarked) | 10.9%
CCN(CC)S(=O)(=O)N1CCC(C(=O)NCc2ccco2)CC1 | 2.3%
CCCC(O)(c1ccccc1)C(CN1CCOCC1)c1ccccc1.Cl (centres unmarked) | 2.54%
CC(C)(CNC(=O)c1cccc(F)c1)CNC(=O)c1cccc(F)c1 | -13.1%
CC(C(=O)NC1CCCCC1)N1C(=O)C2C3C=CC(C3)C2C1=O (centres unmarked) | 14.2%
COc1cccc(C(=O)Nc2cccc(-c3nnc(-c4ccco4)o3)c2)c1 | -51.4%
